# From PubChem BioAssay (NCATS)
# Inconclusive means that the source gave no clear call. Such entries were picked first, then a sample of the others. Where the call is inconclusive, the potency comes from a doubtful curve fit. Active and inactive are the calls of the source. Calls come from the whole dose curve; as a rule, active = well fitted cell-killing curve with a large enough effect; inconclusive = small, poorly fitted or top-dose-only effect, or effect the other way; inactive = flat fitted curve, though single readings scatter. Numbered stars: 1 amine (or outer) side, 2 acyl side, 3 side chain; on linkers, the order of the positions; unused ones are H or OH. Square brackets hold non-standard residues; d marks the D form. Peptide text beside a SMILES is read from it. X3 = CC(CC(O[*:1])C(=O)[*:2])C(=O)O; NMeV = CN[CH](C(=O)O)C(C)C; NMeA = CN[CH](C)C(=O)O; βAla = NCCC(=O)O
# Test system: PA-1
# Experiment: Primary qHTS to identify gynecologic anti-cancer compounds using libraries of approved drugs and bioactive compounds (AID 1345084); note: nearly all actives have a fitted effect of over 55% in size
# Details: Gynecologic cancer cell panel viability, ATPlite luminescence, 48 h; series mostly up to 57.5 µM; activity change, negative = cytotoxicity: at the top concentration
# Outline: (§1)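 ATP-based viability (ATPlite), 1,000 cells/well, 16 h pre-incubation, 48 h compound at 37 C, 5% CO2, 15 min RT before read.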
# % is set by controls: 0 for no effect and ±100 for the full control effect; potency is the fitted concentration of half-maximal effect; tags give direction and shape of the fitted curve.
SMILES,Potency,"activity change, negative = cytotoxicity"
N[C@@H](Cc1ccc(N(CCCl)CCCl)cc1)C(=O)O,"inconclusive: 39.8 µM [cytotoxic, single point]",
C=C1[C@@H](O)[C@]2(O)OC[C@]34C2[C@]2(C)C(C[C@H]3OC(=O)[C@H](O)[C@@]14O)C(C)=CC(=O)[C@H]2O (stereo partly drawn),"inconclusive: 8.91 µM [cytotoxic, partial curve]",
COC1CC(OC2CCC3(C)C(=CCC4C3CCC3(C)C(C(C)OC5OC(COC6OC(CO)C(O)C(O)C6O)C(O)C(O)C5O)CCC43O)C2)OC(C)C1OC1OC(C)C(O)C(OC)C1O (stereo not drawn),,inactive: 2.38% [at 11.6 µM]

# Test system: SKOV3
# Experiment: as above
# Details: Gynecologic cancer cell panel viability, ATPlite luminescence, 48 h; series mostly up to 57.5 µM; activity change, negative = cytotoxicity: at the top concentration
# Outline: as §1
SMILES,"activity change, negative = cytotoxicity",Potency
CCN(CC)C(C)C(=O)c1ccccc1 (stereo not drawn),inactive: 20.2%,
CC1CCCCCC(=O)c2c(O)cc(O)cc2CC(=O)O1 (stereo not drawn),inactive: 1.96%,
Cc1cccc(NC(=O)NC2N=C(c3ccccc3)c3ccccc3N(CC(=O)c3ccccc3C)C2=O)c1 (stereo not drawn),inactive: -2.32%,
C=C(CO)C(=O)O[C@H]1C/C(C)=C/CC/C(CO)=C/[C@H]2OC(=O)C(=C)[C@H]12,inactive: -4.12% [at 38.5 µM],
COCCOCCO,inactive: -0.385% [at 116 µM],
O=P1(N(CCCl)CCCl)NCCCO1 (stereo not drawn),,"inconclusive: 39.8 µM [cytotoxic, single point]"
CCC(C)C1NC(=O)C2CCCN2C(=O)C(CC(C)C(=O)O)OC(=O)CCNC(=O)C(C)N(C)C(=O)C(C(C)C)N(C)C1=O (stereo not drawn) (cyclo([X3]PI[NMeV][NMeA][βAla]); configuration not given here),inactive: -0.401% [at 25.3 µM],
C/C=C(\C)C(=O)OC1CC2C(CC=C3CC(OC4CC(OC)C(OC5CC(OC)C(OC6OC(C)C(OC7OC(CO)C(O)C(O)C7O)C(OC)C6O)C(C)O5)C(C)O4)CCC32C)C2(O)CCC(C(C)=O)C12C (stereo not drawn),inactive: 18.2% [at 11.6 µM],
O=C(OC[C@H]1O[C@@H](Oc2ccc(O)cc2CO)[C@H](O)[C@@H](O)[C@@H]1O)c1ccccc1,,"inconclusive: 20 µM [rising, partial curve, poor fit]"
CCOC(=O)CC(SP(=S)(OC)OC)C(=O)OCC (stereo not drawn),,"inconclusive: 14.1 µM [cytotoxic, single point] and inactive"
COc1cccc([C@@]2(O)CCCC[C@@H]2CN(C)C)c1,inactive: -11.6%,
Nc1ccc([N+](=O)[O-])cc1,,"inconclusive: 70.8 µM [rising, single point]"
CC(CC(C#N)(c1ccccc1)c1ccccc1)N(C)C (stereo not drawn),,"inconclusive: 89.1 µM [cytotoxic, single point]"
CN1CCC(O)(c2ccc(F)cc2)C(C(=O)c2ccc(F)cc2)C1 (stereo not drawn),inactive: 0%,
C=CC/C=C\C/C=C\CCCCCCCc1cc(O)cc(O)c1,inactive: 0.243% [at 38.5 µM],
C[C@H]1CC[C@@H]2[C@@H](C)[C@H]3[C@H](C[C@H]4[C@@H]5CC=C6CC(O[C@@H]7O[C@H](CO)[C@@H](O)[C@H](O[C@@H]8O[C@H](CO)[C@@H](O)[C@H](O)[C@H]8O)[C@@H]7O[C@@H]7O[C@@H](C)[C@H](O)[C@@H](O)[C@H]7O)CC[C@]6(C)[C@H]5CC[C@]34C)N2C1 (stereo partly drawn),,"inconclusive: 0.891 µM [rising, partial curve, poor fit]"
CN1C(=O)[C@@H](NC(=O)c2cc3ccccc3[nH]2)N=C(c2ccccc2)c2ccccc21,,"inconclusive: 1.58 µM [cytotoxic, full curve, poor fit]"
CCC1NC(=O)C2C(Cl)C(Cl)CN2C(=O)C(C(C)O)NC(=O)CC(c2ccccc2)NC(=O)C(CO)NC1=O (stereo not drawn),,"inconclusive: 4.47 µM [rising, partial curve, poor fit]"

SMILES,"activity change, negative = cytotoxicity",Potency
COc1ccc(C23CCC(=O)C=C2N(C)CC3)cc1OC (stereo not drawn),,active: 25.1 µM
CN1C(=O)c2ccccc2NC(=O)C1Cc1ccccc1 (stereo not drawn),inactive: 3.58%,
O=C1CN=C(c2ccccc2)c2cc([N+](=O)[O-])ccc2N1,inactive: -4.24%,
COC(=O)C1(C)CCC(O)C2(C)c3c(O)cc(C(C)C)cc3C(O)C(OC(C)=O)C12 (stereo not drawn),inactive: -9.19% [at 25.3 µM],
CC(=O)OC1(c2ccccc2)CCN(CCc2ccccc2)CC1,,"inconclusive: 63.1 µM [cytotoxic, single point]"
Cc1cccc(NC(=O)N[C@H]2CN(C)c3ccccc3C(c3ccccc3)=N2)c1,inactive: 0.864%,
CCC1(CCC(C)C)C(=O)NC(=O)NC1=O,,"inconclusive: 2.82 µM [rising, full curve, poor fit]"
C[C@H](CN1CCOCC1)C(C(=O)N1CCCC1)(c1ccccc1)c1ccccc1,inactive: -0.943% [at 116 µM],
CCOC(=O)C1(CCc2ccccc2)CCN(Cc2ccc(NC(C)=O)cc2)CC1,inactive: -22%,
C[C@H](N)C(=O)c1ccccc1,inactive: -17.4% [at 116 µM],
CCOC(=O)NC(C)(C)Cc1ccc(Cl)cc1,,"inconclusive: 25.1 µM [rising, single point]"
CCCN1CCO[C@H]2c3cc(O)ccc3OC[C@@H]21,inactive: 4.05%,
C[C@H]1CNCCc2ccc(Cl)cc21,inactive: -21%,
O=[N+]([O-])c1c(Cl)c(Cl)cc(Cl)c1Cl,,"inconclusive: 5.01 µM [rising, partial curve, poor fit]"
CN1C2CCC1CC(OC(=O)N1Cc3ccccc3NC1=O)C2 (stereo not drawn),,"inconclusive: 22.4 µM [rising, single point]"
COc1cc(OC)c(OC)cc1C=O,inactive: -6.82% [at 116 µM],
C[N+](C)(C)CCOC(=O)C(O)(c1ccccc1)c1ccccc1,inactive: 7.65%,
